# In PubChem BioAssay (NCATS):
# Inconclusive means that the source gave no clear call. Such entries were picked first, then a sample of the others. For some assays here: No potency is given beside an inconclusive call; the fits are too rough. Calls of active or inactive are those of the source. Unless noted, the call rests on the fitted dose curve; in most records, active means well fitted curve in the direction sought with a large enough effect; inconclusive means small, poorly fitted or top-dose-only effect, or another doubt; inactive means no such curve, though single readings can be large; an effect the other way counts as inactive or inconclusive.
# Key:
# [1] = qHTS of pediatric cancer cell lines to identify multiple opportunities for drug repurposing: Primary screen for NB-EBc1 cells (AID 1347095)
# Outline: (§1)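 Luminescence from CellTiter-Glo served as readout of metabolically active cells after 48 h compound exposure. Titrations: MIPE 11-point, from 0.78 nM; NPC 8-point, from 0.59 nM (final). Concentration-response curves came straight from the primary screen.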
# [2] = qHTS of pediatric cancer cell lines to identify multiple opportunities for drug repurposing: Primary screen for U-2 OS cells (AID 1347096); further: nearly all actives have a fitted effect of over 50% in size
# Outline: (§2)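 Viability after 48 h compound treatment at 37C, 500-1,000 cells/well, read as ATP luminescence with CellTiter-Glo. Primary screens used 11-point (MIPE, 0.78 nM-46 µM) or 8-point (NPC, 0.59 nM-46 µM) final concentrations; follow-up screens used 11-point dilutions.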
# [3] = qHTS of pediatric cancer cell lines to identify multiple opportunities for drug repurposing: Primary screen for LAN-5 cells (AID 1347100)
# Outline: as §2
# [4] = qHTS of pediatric cancer cell lines to identify multiple opportunities for drug repurposing: Primary screen for Rh41 cells (AID 1347108);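 further: luminescence drop marks cytotoxic hits; nearly all actives have a fitted effect of over 70% in size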
# Outline: as §1
# [5] = target: Cytochrome P450 2C9 (Homo sapiens) (UniProt P11712); test: Cytochrome P450 family 2 subfamily C member 9 (CYP2C9) small molecule antagonists: luciferase biochemical (cell-free) qHTS assay (AID 1645842; active means well fitted curve in the direction sought with a large enough effect in the repeat runs; inconclusive means weak or mixed curves; inactive means no such curve, though single readings can be large; an effect the other way counts as inactive or inconclusive; further: nearly all actives have a fitted effect of over 55% in size)
# Chain of UniProt P11712 (P11712 whole entry, looked up): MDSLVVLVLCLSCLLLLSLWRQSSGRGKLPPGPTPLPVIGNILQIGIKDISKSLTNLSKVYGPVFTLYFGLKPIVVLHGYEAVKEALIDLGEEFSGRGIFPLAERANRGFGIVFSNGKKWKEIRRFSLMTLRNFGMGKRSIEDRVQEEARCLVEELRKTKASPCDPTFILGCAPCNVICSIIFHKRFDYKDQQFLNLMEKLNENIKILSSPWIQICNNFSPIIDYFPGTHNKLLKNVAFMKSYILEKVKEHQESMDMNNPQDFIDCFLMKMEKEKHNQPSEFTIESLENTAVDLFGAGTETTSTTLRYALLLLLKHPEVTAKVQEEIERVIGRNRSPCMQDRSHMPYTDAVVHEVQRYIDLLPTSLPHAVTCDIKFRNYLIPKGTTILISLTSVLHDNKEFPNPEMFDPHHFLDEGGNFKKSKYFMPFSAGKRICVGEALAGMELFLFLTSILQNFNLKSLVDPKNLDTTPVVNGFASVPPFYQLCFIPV
# Outline: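 P450-Glo CYP2C9 system: proluciferin substrate with enzyme in mix containing 0.4% BSA, 10 min at room temperature, then NADPH regeneration solution added and incubated 1 h at 37C. Detection reagent stopped reaction; luminescence read after 20 min as RLU.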
# [6] = Primary qHTS for inhibitors of nuclear receptor binding SET domain protein 2 (NSD2) in an isogenic RCH-ACV NSD2 p.E1099K mutant (9B) (AID 1645876); settings: activity change, negative = viability loss: at 44.9 µM (top of the series) unless noted; further: potency means the concentration at half of the fitted maximal effect; nearly all actives have a fitted effect of over 70% in size
# [7] = Primary qHTS for inhibitors of nuclear receptor binding SET domain protein 2 (NSD2) in an RCH-ACV wild type WT cells (2C) (AID 1645877); settings: activity change, negative = cell killing: at 44.9 µM (top of the series) unless noted; further: nearly all actives have a fitted effect of over 70% in size; further: potency means the concentration at half of the fitted maximal effect
# HaCat = test: Cytotoxic Profiling of Annotated Libraries Using Quantitative High-Throughput Screening (AID 1296008); settings: Five cell lines viability, CellTiter-Glo ATP luminescence, 48-72 h; max response: stronger effect = lower value; further: nearly all actives have a fitted effect of over 60% in size; further: potency means the concentration at half of the fitted maximal effect
# Outline: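 Cells exposed to compounds for 48 or 72 hr at 37 degrees Celsius. Viability read as ATP-coupled luminescence with CellTiter-Glo after 10 min at room temperature.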
# Hek293T = test: Primary qHTS to identify gynecologic anti-cancer compounds using libraries of approved drugs and bioactive compounds (AID 1345084); settings: Gynecologic cancer cell panel viability, ATPlite luminescence, 48 h, control line for the selectivity index; series mostly up to 57.5 µM; further: nearly all actives have a fitted effect of over 55% in size; further: potency means the concentration at half of the fitted maximal effect
# Outline: (§3)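 Cell viability after 48 h drug treatment, ATPlite luminescence readout; five doses.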
# [8] = P-glycoprotein substrates identified in KB-8-5-11 adenocarcinoma cell line, qHTS therapeutic library screen (AID 1346987); settings: activity change, negative = cytotoxicity: at 44.5 µM (top of the series); further: nearly all actives have a fitted effect of over 65% in size
# Outline: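 In this qHTS, P-gp-rich KB-8-5-11 cells received library compounds across a concentration range. Viability was quantified by luminescence after 72 h at 37 degree C.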
# OV90 = test: Primary qHTS to identify gynecologic anti-cancer compounds using libraries of approved drugs and bioactive compounds (AID 1345084); settings: Gynecologic cancer cell panel viability, ATPlite luminescence, 48 h; series mostly up to 57.5 µM; further: nearly all actives have a fitted effect of over 55% in size; further: potency means the concentration at half of the fitted maximal effect
# Outline: as §3
# SKOV3 = test: as above; settings: Gynecologic cancer cell panel viability, ATPlite luminescence, 48 h; series mostly up to 57.5 µM
# Outline: as §3
# [9] = system: Zika virus NS2B-NS3 protease (unlinked complex); test: Primary screen GU Rhodamine qHTS for Zika virus inhibitors: Unlinked NS2B-NS3 protease assay (AID 1347159); settings: Recombinant ZIKV NS2B-NS3 protease, Rhodamine110 substrate fluorescence; activity change, negative = inhibition: at 107 µM (top of the series); further: potency means the concentration at half of the fitted maximal effect; nearly all actives have a fitted effect of over 60% in size
# Outline: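 Percent inhibition came from the 15-min rise in Rhodamine110 fluorescence (1.5 microM substrate, ~15% conversion), normalized to no-inhibitor and no-enzyme wells and Hill-fitted. Unlinked protease, 25 nM, pH 8.0 Tris buffer; compounds up to 114 microM, 15-min preincubation.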
# [10] = system: Zika virus NS2B-NS3 protease (linked construct); test: Primary screen NINDS Rhodamine qHTS for Zika virus inhibitors (AID 1347160); further: nearly all actives have a fitted effect of over 55% in size; further: potency means the concentration at half of the fitted maximal effect
# Outline: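 Rhodamine110-peptide cleavage (1.5 µM substrate) by 25 nM linked NS2B-NS3 enzyme at pH 8.0 (Tris, Tween 20), after 15 min RT preincubation with compounds; 15-min fluorescence change normalized to controls and Hill-fitted.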
# [11] = target: Luciferin 4-monooxygenase (Photinus pyralis) (UniProt P08659); test: Primary firefly luciferase (FLuc) qHTS assay for identification of artifact compounds. (AID 1845220); further: nearly all actives have a fitted effect of over 60% in size
# Outline: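 Titrated compounds were incubated 15 min at RT, protected from light, with luciferin and ATP at 10 uM; reaction started with 10 nM FLuc, luminescence imaged at 5 min, and concentration-response fitted by Hill equation.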
# [12] = Primary fluorescence-based thiol-reactive (MSTI) qHTS assay for identification of artifact compounds. (AID 1845221);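 further: thiol-reactive compounds lower the probe fluorescence signal; nearly all actives have a fitted effect of over 65% in size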
# Outline: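 Probe: MSTI 4 uM, PBS pH 7.4, 2% DMSO. Incubation 1 h, RT, light-protected. Readout fluorescence 525/598 nm.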
# [13] = target: Glutathione peroxidase 1 (Homo sapiens) (UniProt P07203); test: Primary qHTS Assay for Inhibitors of Recombinant Selenoprotein Glutathione Peroxidase 1 (GPX1) (AID 1845191); further: nearly all actives have a fitted effect of over 65% in size
# Chain of UniProt P07203 (P07203 whole entry, looked up): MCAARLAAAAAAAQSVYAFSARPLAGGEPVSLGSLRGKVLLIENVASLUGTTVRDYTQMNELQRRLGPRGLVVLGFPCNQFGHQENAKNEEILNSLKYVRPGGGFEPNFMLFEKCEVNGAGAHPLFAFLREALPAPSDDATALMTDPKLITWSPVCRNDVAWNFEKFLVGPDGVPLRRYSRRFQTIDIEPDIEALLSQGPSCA
# Outline: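 GR-coupled readout: NADPH consumption tracked by fluorescence, ex 340/em 450 nm, at t=0 and after 15 min at RT. Final mix 10 nM GPX1, 1 mM GSH, 0.5 mM CHP, 0.5 mM NADPH, 100 nM GR, 0.01% BSA, following 30 min enzyme–compound preincubation.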
# [14] = target: Phospholipid hydroperoxide glutathione peroxidase GPX4 (Homo sapiens) (UniProt P36969); test: Primary qHTS Assay for Inhibitors of Recombinant Selenoprotein Glutathione Peroxidase 4 (GPX4) (AID 1845192); settings: activity change, negative = inhibition: at 50 µM (top of the series) unless noted; further: potency means the concentration at half of the fitted maximal effect; nearly all actives have a fitted effect of over 65% in size
# Chain of UniProt P36969 (P36969 whole entry, looked up): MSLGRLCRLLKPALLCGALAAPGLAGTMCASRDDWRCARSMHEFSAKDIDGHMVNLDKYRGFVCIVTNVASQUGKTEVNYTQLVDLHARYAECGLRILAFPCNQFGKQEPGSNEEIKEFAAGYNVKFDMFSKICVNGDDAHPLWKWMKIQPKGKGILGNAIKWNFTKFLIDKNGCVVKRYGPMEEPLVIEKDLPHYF
# Outline: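 Steps: GPX4 plus compound, 30 min RT; add GR/GSH/NADPH master mix; start with cumene hydroperoxide; read 340/450 nm fluorescence at 0 and 15 min. Finals were 200 nM GPX4, 1 mM GSH, 0.5 mM CHP, 0.5 mM NADPH, 100 nM GR.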
# [15] = Primary redox qHTS assay for identification of artifact compounds. (AID 1845223); further: potency means the concentration at half of the fitted maximal effect
# Outline: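 Redox-cycling detection via DTT (250 uM final) oxidation coupled to Amplex Red (25 uM)/HRP (250 mU/mL) in HBSS. 15 min preincubation plus 30 min after DTT, room temperature. Ex/Em 525/598 nm; 4-parameter Hill fit against DMSO and 10 uM DA3003.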
# JEG-3 = test: Primary qHTS to identify gynecologic anti-cancer compounds using libraries of approved drugs and bioactive compounds (AID 1345084); settings: Gynecologic cancer cell panel viability, ATPlite luminescence, 48 h; series mostly up to 57.5 µM; further: nearly all actives have a fitted effect of over 55% in size; further: potency means the concentration at half of the fitted maximal effect
# Outline: as §3
# Tags describe the fitted curve by direction and shape.
structure (smiles),measurement,setting,value
CNC(=O)c1cnn(-c2nc(N)c3ncn([C@@H]4O[C@H](CO)[C@@H](O)[C@H]4O)c3n2)c1,Potency,[1],inactive
same,Potency,[2],inactive
same,Potency,[3],inactive
same,Potency,[4],inactive
same,Potency,[5],inactive
same,Potency,[6],"inconclusive [inhibitor, single point]"
same,Potency,[7],"inconclusive [inhibitor, single point]"
same,Potency,HaCat,"inconclusive [inhibitor, partial curve]"
same,Potency,Hek293T,inactive
COc1cc2nc(=NC(=O)c3cccnc3)n3c(c2cc1OC)NCC3,Potency,[8],inactive
same,Potency,HaCat,active: 16.4 µM
same,Potency,Hek293T,inactive
same,Potency,OV90,inactive
same,Potency,SKOV3,"inconclusive [cytotoxic, single point]"
C/C(=C\CCC1(C)C2CC3C(C2)C31C)C(=O)O (stereo not given),Potency,[9],"inconclusive [inhibitor, full curve]"
same,Potency,[10],inactive
same,Potency,[11],inactive
same,Potency,[12],inactive
same,outcome,HaCat,inactive
same,Potency,OV90,inactive
O=C(O)/C=C/c1ccc(O)c(O[C@@H]2O[C@H](CO)[C@@H](O)[C@H](O)[C@H]2O)c1,Potency,[9],"inconclusive [inhibitor, partial curve]"
same,Potency,[10],"inconclusive [inhibitor, full curve, poor fit]"
same,Potency,[7],inactive
same,Potency,HaCat,"inconclusive [inhibitor, single point]"
same,Potency,Hek293T,inactive
CC/C=C\CCO[C@@H]1O[C@H](CO[C@@H]2OC[C@H](O)[C@H](O)[C@H]2O)[C@@H](O)[C@H](O)[C@H]1O,Potency,[9],"inconclusive [inhibitor, single point]"
same,Potency,[10],"inconclusive [inhibitor, partial curve, poor fit]"
same,Potency,HaCat,"inconclusive [inhibitor, single point]"
same,Potency,OV90,inactive
COc1c2ccoc2nc2c(OC)c(O[C@@H]3O[C@@H](C)[C@H](O)[C@@H](O[C@@H]4O[C@H](CO)[C@@H](O)[C@H](O)[C@H]4O)[C@H]3OC(C)=O)ccc12,Potency,[7],inactive
same,Potency,[13],inactive
same,Potency,[14],"inconclusive [inhibitor, partial curve]"
same,Potency,[15],"inconclusive [activator, single point]"
same,outcome,HaCat,inactive
same,Potency,JEG-3,inactive
